Data published in the supplement of paper PMC3334620.
The full ranking holds about 33,000 sequences; the median of “E-score (-0.5 to 0.5)” is about -0.035, and the highest 2% start at about 0.34. The list shows a part of the results.

biological target: T1, Mot3 (UniProt P54785); assay: PBM E-score (8-mer binding enrichment) (E-score (-0.5 to 0.5)); higher = stronger / more preferred TF binding; most listed sequences are background and not binding sites; conditions: protein concentration: 200 nM; construct: GST-full length
T1 sequence: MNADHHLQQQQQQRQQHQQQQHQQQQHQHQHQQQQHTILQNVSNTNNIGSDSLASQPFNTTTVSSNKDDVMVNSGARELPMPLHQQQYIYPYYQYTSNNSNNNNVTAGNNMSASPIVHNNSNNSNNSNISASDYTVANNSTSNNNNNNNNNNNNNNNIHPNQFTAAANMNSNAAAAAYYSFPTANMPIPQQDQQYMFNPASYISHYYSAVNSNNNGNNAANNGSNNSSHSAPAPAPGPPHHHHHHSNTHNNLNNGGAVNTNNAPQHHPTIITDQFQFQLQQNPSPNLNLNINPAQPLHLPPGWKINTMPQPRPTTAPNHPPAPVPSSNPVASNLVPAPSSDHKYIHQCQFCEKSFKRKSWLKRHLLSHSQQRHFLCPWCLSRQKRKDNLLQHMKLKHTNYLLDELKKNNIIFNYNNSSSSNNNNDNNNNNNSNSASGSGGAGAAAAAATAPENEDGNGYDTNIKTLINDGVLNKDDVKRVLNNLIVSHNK
Outline: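 Full-length yeast transcription factors or their DNA-binding domains, GST-tagged and expressed with PURExpress, were applied at about 100-200 nM to universal all-10-mer Agilent arrays. These arrays had been made double-stranded by primer extension on fresh or once-stripped slides. Detection used fluorescent anti-GST, normalisation used masliner, and E-scores for ungapped eight-base words pooled with reverse complements came from the Universal PBM Analysis Suite.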

First: AATTCCGT
Second: CTCACCAG
The “PBM E-score” value of the first is higher: 0.079 for the first, -0.228 for the second.

Compared with ACCAAGTC, TGCCGCAA is higher in “PBM E-score” value: -0.121 for the first, -0.114 for the second.

Compared with CGGTGCAA, ACGCGAAC is higher in “PBM E-score” value: 0.00071 for the first, 0.124 for the second.

First: GCGACGCA
Second: TGTACTAA
The “PBM E-score” value of the first is lower: -0.151 for the first, 0.174 for the second.

First: ACCATGGA
Second: GCGTGGAC
The “PBM E-score” value of the first is higher: -0.11 for the first, -0.207 for the second.

Compared with CGTGTCTA, CTCTGGGA is lower in “PBM E-score” value: 0.258 for the first, -0.236 for the second.

First: AGTCCACC
Second: AGTGGGCA
The “PBM E-score” value of the first is lower: -0.168 for the first, 0.0468 for the second.

First: AAGAAGAG
Second: GTGGTCAA
The “PBM E-score” value of the first is higher: 0.0452 for the first, -0.00981 for the second.

First: GAAATACA
Second: CGAGATAC
The “PBM E-score” value of the first is higher: 0.328 for the first, 0.051 for the second.

Going from CAAGTAGC to ATAATTCG, the “PBM E-score” value rises from 0.00372 to 0.0134.

Going from CGTCCACG to GATCAATA, the “PBM E-score” value rises from -0.287 to -0.0835.

Going from CTAACTGA to AGCTTTTA, the “PBM E-score” value rises from -0.105 to 0.0476.

Going from CGGGCTAC to GCTAGTCC, the “PBM E-score” value falls from -0.201 to -0.342.

Compared with AGCGACCT, AATTCTCA is higher in “PBM E-score” value: -0.135 for the first, 0.0166 for the second.

Going from AAAGAAAG to AGACGACC, the “PBM E-score” value falls from 0.191 to -0.0112.

First: AGCTCTGA
Second: AATAGCAT
The “PBM E-score” value of the first is lower: -0.316 for the first, 0.0627 for the second.

Compared with GAAGTTCA, AACCGCGC is lower in “PBM E-score” value: -0.0596 for the first, -0.125 for the second.

First: AGGGCCGC
Second: ACTTTCGC
The “PBM E-score” value of the first is lower: -0.2 for the first, -0.0295 for the second.

Going from AACCAGGT to AGGTGGAG, the “PBM E-score” value rises from -0.172 to -0.039.

Compared with CGATGCGA, CTAGCTAG is higher in “PBM E-score” value: -0.192 for the first, -0.146 for the second.

Going from GAAACAAA to ATCCCGGA, the “PBM E-score” value falls from 0.173 to -0.199.

Going from CAACCAGC to AAATGGAT, the “PBM E-score” value rises from 0.00855 to 0.12.

Going from ACAGGGGG to GCGCCAGC, the “PBM E-score” value rises from -0.191 to 0.128.

Compared with CGAGTATC, CCGGTTGA is higher in “PBM E-score” value: -0.191 for the first, -0.156 for the second.

Going from ATCGTGGC to TGCAAAAA, the “PBM E-score” value rises from 0.0571 to 0.106.

Going from GGGGATTA to ATTTCTCG, the “PBM E-score” value rises from 0.0141 to 0.18.

First: GTACGGAC
Second: GGCTGCCC
The “PBM E-score” value of the first is higher: -0.157 for the first, -0.361 for the second.

Going from GAATTACC to ACGAGCGG, the “PBM E-score” value falls from 0.0992 to -0.186.

Going from AGGAGCGC to GGCTGATA, the “PBM E-score” value falls from -0.141 to -0.23.

Compared with AATATGTG, GTGTGGGA is lower in “PBM E-score” value: 0.228 for the first, -0.0409 for the second.

First: CATTCATC
Second: CGAAAACG
The “PBM E-score” value of the first is higher: -0.057 for the first, -0.12 for the second.

First: TCAGCGGA
Second: CGTCAAAG
The “PBM E-score” value of the first is lower: -0.276 for the first, 0.101 for the second.

Going from CCTTATAA to CATTTACC, the “PBM E-score” value rises from 0.146 to 0.158.

Going from CGTTTCAG to AGCATGAG, the “PBM E-score” value falls from 0.0418 to -0.0411.

Compared with ACGTACCC, CACAGTCA is higher in “PBM E-score” value: 0.0197 for the first, 0.0815 for the second.

Going from AGGATTAT to AGCATACC, the “PBM E-score” value falls from 0.046 to -0.171.

First: CCAAAAGC
Second: CAGGCATC
The “PBM E-score” value of the first is lower: -0.184 for the first, 0.402 for the second.

First: ACAGTACC
Second: ATCGAACC
The “PBM E-score” value of the first is higher: -0.0195 for the first, -0.089 for the second.

Compared with ACAACTCG, CGGATGGA is lower in “PBM E-score” value: 0.115 for the first, -0.209 for the second.

Compared with AATGATCT, GCCTTATA is higher in “PBM E-score” value: -0.113 for the first, 0.246 for the second.

Going from AAAACCTT to GACAAGAA, the “PBM E-score” value rises from -0.0457 to -0.041.

First: CCCAACTC
Second: CAAGGTTC
The “PBM E-score” value of the first is lower: -0.0709 for the first, -0.0388 for the second.

Going from CATGGGCC to GACGTCGC, the “PBM E-score” value rises from -0.088 to -0.069.
